The record followed here is article PMC4336329 (PLoS ONE, 2015).

In all, about 310,000 compounds went through this assay and about 2,200 (0.71%) showed an effect of 50% or more. The effect is printed as a negative number. This is one part of the list. Where a SMILES comes first, the peptide text is derived from it. [ ]: non-standard residue; d: D form. The star is where a group is joined. ξ: configuration not given here. ξF = NC(Cc1ccccc1)C(=O)O; Cbz = O=C(OCc1ccccc1)*

Chain of human ether-à-go-go-related gene (hERG) potassium channel (Q12809 whole entry, looked up): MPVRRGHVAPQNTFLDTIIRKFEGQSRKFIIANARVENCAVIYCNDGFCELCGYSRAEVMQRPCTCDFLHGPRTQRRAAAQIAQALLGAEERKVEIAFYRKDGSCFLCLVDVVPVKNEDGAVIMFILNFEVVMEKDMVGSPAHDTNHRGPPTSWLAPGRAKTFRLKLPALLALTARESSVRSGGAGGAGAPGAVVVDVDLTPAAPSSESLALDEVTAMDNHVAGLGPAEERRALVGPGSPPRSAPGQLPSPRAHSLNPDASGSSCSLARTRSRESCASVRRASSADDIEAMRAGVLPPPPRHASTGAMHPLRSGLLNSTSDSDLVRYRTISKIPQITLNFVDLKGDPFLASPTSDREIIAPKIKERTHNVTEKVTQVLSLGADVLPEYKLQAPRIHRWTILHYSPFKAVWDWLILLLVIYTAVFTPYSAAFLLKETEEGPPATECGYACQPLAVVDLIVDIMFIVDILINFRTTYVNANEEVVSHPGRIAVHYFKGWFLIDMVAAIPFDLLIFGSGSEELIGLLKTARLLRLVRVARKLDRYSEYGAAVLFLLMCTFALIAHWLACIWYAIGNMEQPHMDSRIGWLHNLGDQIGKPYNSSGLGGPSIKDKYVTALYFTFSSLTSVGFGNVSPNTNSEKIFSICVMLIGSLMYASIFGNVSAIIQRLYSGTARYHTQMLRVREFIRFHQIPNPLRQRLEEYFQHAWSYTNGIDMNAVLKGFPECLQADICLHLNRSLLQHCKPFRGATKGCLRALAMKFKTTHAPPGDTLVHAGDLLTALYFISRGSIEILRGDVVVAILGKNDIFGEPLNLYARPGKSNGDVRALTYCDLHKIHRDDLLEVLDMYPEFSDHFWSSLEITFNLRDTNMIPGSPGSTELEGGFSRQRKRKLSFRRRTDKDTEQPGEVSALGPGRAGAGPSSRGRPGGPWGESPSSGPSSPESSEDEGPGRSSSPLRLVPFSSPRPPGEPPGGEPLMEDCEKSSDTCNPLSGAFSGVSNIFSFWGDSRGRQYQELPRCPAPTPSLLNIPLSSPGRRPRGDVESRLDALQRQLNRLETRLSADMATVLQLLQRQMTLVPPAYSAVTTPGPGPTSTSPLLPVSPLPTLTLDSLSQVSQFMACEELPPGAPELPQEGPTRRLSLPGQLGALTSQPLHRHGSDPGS

This assay has as its target human ether-à-go-go-related gene (hERG) potassium channel (human, UniProt Q12809). As to the kind of experiment: primary screen, population patch clamp on CHO cells stably expressing hERG.
`COc1cc(S(=O)(=O)N(Cc2cccs2)C2CC2)ccc1-n1cnnn1`: the “hERG current change (%, negative = inhibition) at 1uM” value is 7.06%.
As for `Cc1cccc(CCNC(=O)CC2C(=O)NCCN2CC2CCCCC2)n1` (stereo not shown), the “hERG current change (%, negative = inhibition) at 1uM” value was 17.4%.
For `Cc1cc(N/N=C/c2ccccc2O)c2ccccc2n1` the value was -3.6%; for `COCCCN(C(=O)CCOc1ccc(C(C)(C)C)cc1)c1c(N)n(Cc2ccccc2)c(=O)[nH]c1=O`, 0.637%.
For `CSCC(=O)N1CCC(n2nccc2NC(=O)c2ccc3c(c2)OCO3)CC1` the value was 0.299%; for `COc1cccc(OCCn2ccnc2)c1`, 4.11%.
For `Cn1nc(C(=O)NC2CCCc3ccccc32)ccc1=O` (stereo not shown), the “hERG current change (%, negative = inhibition) at 1uM” value came out at 15.7%.
For `CN(C)S(=O)(=O)c1ccc2oc(SCC(N)=O)nc2c1`, the “hERG current change (%, negative = inhibition) at 1uM” value came to 11%.
The same measure for `Cc1ccc2nc(SCc3nnc(-c4ccccc4Br)o3)[nH]c2c1`: 9.48%; for `Cc1ccc(NC(=O)CSc2ncccn2)cc1F`: 3.2%.
Take `CC(C)(C)c1ccc(C(=O)NC(=S)NCC2CCCO2)cc1` (stereo not shown): the “hERG current change (%, negative = inhibition) at 1uM” value is 1.27%.
For the compound `COC(=O)c1ccc(COC(=O)c2ccccn2)cc1`, the “hERG current change (%, negative = inhibition) at 1uM” value was 12.3%.
Turning to `Cc1cccc(-c2csc(N)c2C(=O)OC(C)C)c1`, the “hERG current change (%, negative = inhibition) at 1uM” value was 5.18%.
For `Cc1ccc(NC(=O)CCN2CCCCC2)cc1.Cl` the value was 8.05%.
In the case of `O=[N+]([O-])c1cc2c(cc1CN1CCN(c3ccccc3)CC1)OCO2`, the “hERG current change (%, negative = inhibition) at 1uM” value was found to be 12.1%.
The same measure for `Cc1ccccc1OCC(=O)NC(=S)Nc1cccc2cc(O)ccc12`: 12%; for `CCOC(=O)N1CCN(C(=O)C(CC(C)C)NC(=O)C2CCCCC2)CC1` (stereo not shown): 14.2%.
For `CS(=O)(=O)c1ccc(Cl)c(NC(=O)COC(=O)CNC(=O)c2ccc3ccccc3c2)c1`, the “hERG current change (%, negative = inhibition) at 1uM” value is recorded as 4.7%.
For `COc1ccc(N2C(=O)CSC2c2cccc(OC)c2OC)cc1` (stereo not shown), the “hERG current change (%, negative = inhibition) at 1uM” value is recorded as 12.7%.
The same measure for `COc1ccccc1N(C(=O)CNC(=O)c1ccco1)C(C(=O)NC1CCCC1)c1ccncc1` (stereo not shown): 10.7%; for `Cc1ccc(O)c(N=Cc2sc3ccccc3c2Cl)c1`: 11.3%.
As for `CCN(CC)C(=O)CC1(c2ccccc2OC)CCOC(C(C)C)C1` (stereo not shown), the “hERG current change (%, negative = inhibition) at 1uM” value was 2.22%.
For `CCC(C)(C)NC(=O)C(c1ccc(OC)cc1)N(Cc1ccccc1)C(=O)CCC(=O)Nc1cc(C)on1` (stereo not shown) the value was 8.74%.
For `Cc1cccc(NC(=O)c2cc3c(=O)n4ccccc4nc3s2)c1` the value was 11.5%; for `O=C(Cc1ccccc1)Nc1ccc(NC(=O)c2cccs2)cc1Cl`, -14.9%.
For `CC(=O)NC(NC(=S)N1CCCCCC1)C(Cl)(Cl)Cl` (stereo not shown) the value was 10.1%.
As to `COC(=O)c1sccc1NC(=O)COc1ccc(Cl)cc1`, the “hERG current change (%, negative = inhibition) at 1uM” value is on record as -1.18%.
For `Cc1cc(C)n(CC(=O)N2c3ccccc3Sc3ccccc32)n1` the value was 4.34%; for `C#CCOCCOCCOCCNc1nc(N2CCN(C(=O)[C@H](CCCC[NH3+])n3cc(CCCC)nn3)CC2)nc(N2CCN(C(=O)[C@H](CCCC[NH3+])n3cc(CCCC)nn3)CC2)n1.[Cl-]`, 17%.
`CC(NC(=O)c1cc(S(=O)(=O)N2CCCC2)cn1C)c1ccccc1` (stereo not shown): the “hERG current change (%, negative = inhibition) at 1uM” value was found to be 11%.
On to `Cc1ccc(CNC(=O)C2CCN(S(=O)(=O)N3CCC4(CC3)OCCO4)CC2)cc1`, for which the “hERG current change (%, negative = inhibition) at 1uM” value is 1.7%.
The same measure for `O=c1cc(-c2cccc3ccccc23)[nH][nH]1`: 13.5%; for `CCC(C)C(=O)Nn1c(C2CC2)nc2cc(OC)c(OC)cc2c1=O` (stereo not shown): 16.3%.
Turning to `CCCCOP(=O)(OCCCC)C(O)c1ccc(N(C)C)cc1` (stereo not shown), the “hERG current change (%, negative = inhibition) at 1uM” value amounted to 12.5%.
The same measure for `CC(=O)Nc1ccc(NC(=O)c2sc3nc4n(c(=O)c3c2C)CCCCC4)cc1`: -2.1%; for `Cc1nc2ccccc2n1CCC(=O)O.Cl`: -13.9%.
The same measure for `Cc1ccccc1-n1nc2c(c1NC(=O)c1cc3ccccc3o1)CS(=O)(=O)C2`: 3.47%; for `CCc1ccccc1NC(=O)C1CCCN(c2nccc(C)n2)C1` (stereo not shown): 15.6%.
For `O=C(O)c1ccc(NC2=C(N3CCOCC3)C(=O)c3ccccc3C2=O)cc1` the value was 11.2%; for `Cc1cc(-c2ccccc2)nnc1NCCN1CCOCC1.Cl`, -0.953%; for `O=C(Cc1ccccc1)Nc1ccc(N2CCCCC2)cc1`, 2.59%.
For the compound `Cc1cc(=O)[nH]c(SCC(=O)Nc2ccc3c(c2)OCCO3)n1`, the “hERG current change (%, negative = inhibition) at 1uM” value is 9.85%.
On to `CCOC(=O)C1CCN(C(=O)c2cc(COc3ccc(F)cc3F)on2)CC1`, for which the “hERG current change (%, negative = inhibition) at 1uM” value is 3.13%.
`COC(=O)C1=C(C)N(Cc2ccc(C)cc2)C(=O)C1`: the “hERG current change (%, negative = inhibition) at 1uM” value is on record as 6.87%.
For `CCc1ccc(CN(C)C(=O)C2CCC(=O)N(Cc3cccc(OC)c3)C2)nc1` (stereo not shown) the value was 4.11%; for `O=S(=O)(CCSc1ccc(C(F)(F)F)cn1)c1ccc(Cl)cc1`, 11.7%.
For `Cc1cc(O)cc(O[C@H]2OC(CO)[C@H](O)[C@@H](O)[C@H]2O)c1` (stereo partly shown) the value was 10.4%; for `Cc1ccc(NC(=O)/C=C/c2ccc([N+](=O)[O-])s2)cc1`, 13.2%.
For `O=c1c2ccccc2nc2n1CCc1c-2[nH]c2ccccc12` the value was 12.8%; for `CC(=O)SCC(Cc1ccccc1)C(=O)NCC(=O)OCc1ccccc1` (stereo not shown), 10.6%.
With `C/C(=C\C(=S)Nc1ccccc1)Nc1cccc2ccccc12`, the “hERG current change (%, negative = inhibition) at 1uM” value was 15.3%.
The same measure for `Cc1ccc(C(=O)NC(=S)NCC2CCCO2)cc1Br` (stereo not shown): 10.5%; for `CC1CN(C(=O)c2cccc(C(=O)N3CC(C)OC(C)C3)c2)CC(C)O1` (stereo not shown): 17.3%; for `CCCNC(=O)N[C@@H](Cc1ccccc1)C(=O)OC`: 8.61%.
The same measure for `CN(C)C(=S)Nc1cccc(-c2n[nH]c(=S)o2)c1`: 15.3%; for `CCS(=O)(=O)Nc1ccc(C2=NN(C(=O)c3ccccc3)C(c3cccs3)C2)cc1` (stereo not shown): 11.4%; for `Cc1ccsc1-c1ccnc(-n2cccc2)n1`: 13.1%.
For `Cc1cccc(NC(=O)c2cc([N+](=O)[O-])ccc2NC2CCCCC2)c1` the value was 11.6%; for `CC(C)[C@H](NC(=O)OCc1ccccc1)C(=O)NC(C=O)Cc1ccccc1` (stereo partly drawn) (Cbz-Val-[ξF]-aldehyde), 12%.
In the case of `Cc1ccc(CCNC(=O)C2CCN(S(=O)(=O)c3cccc4nsnc34)CC2)cc1`, the “hERG current change (%, negative = inhibition) at 1uM” value was 12.8%.
The same measure for `Cc1cc(Cl)ccc1OC(C)C(=O)NN1C(=O)c2ccccc2C1=O` (stereo not shown): 16.5%; for `COc1ccc(CNC(=O)CN(C(=O)c2csnn2)c2cccc(C(C)=O)c2)cc1`: 11.9%; for `Cc1c(C#N)c(NC(=O)C(C)C)n(Cc2ccccc2)c1C`: 9.94%.
For `CCN(C(=O)Cn1c([N+](=O)[O-])cnc1C)c1ccccc1` the value was 14.2%.
The same measure for `CCOC(=O)Cc1nc2ccccc2n(CC#N)c1=O`: 11.1%; for `O=C(NCCCn1ccnc1)c1ccc(S(=O)(=O)Nc2ccccc2)cc1`: 5.95%; for `O=C(N/C(=C/c1ccc([N+](=O)[O-])cc1)C(=O)N1CCOCC1)c1ccco1`: -34.6%.
As to `Cc1cc(C)nc(NC(=O)C(C)N2C(=O)c3ccccc3C2=O)n1` (stereo not shown), the “hERG current change (%, negative = inhibition) at 1uM” value is given as -18.7%.
The same measure for `CC(CN(C)C)CN1c2ccccc2CCc2ccccc21.O=C(O)/C=C\C(=O)O` (stereo not shown): -12.5%; for `CS(=O)(=O)N(Cc1ccccc1)c1ccc(C(=O)Nc2ccccc2Sc2ccccc2)cc1`: -1.7%; for `CCOc1ccc(NC(=O)CN2C(=O)C3CC=CCC3C2=O)cc1` (stereo not shown): 8.69%.
As for `COc1cccc(-n2cc(C(=O)O)c3ccccc3c2=O)c1`, the “hERG current change (%, negative = inhibition) at 1uM” value worked out at 8.59%.
For `CCc1ccccc1NC(=O)CSc1nnc(Cn2cnc3ccccc32)o1`, the “hERG current change (%, negative = inhibition) at 1uM” value was 11.8%.
The same measure for `O=C(NC1CC2CCC1C2)C1CCN(S(=O)(=O)c2ccc(-c3nn[nH]n3)cc2)CC1` (stereo not shown): 16.3%; for `COc1ccc(C2=NN(C(=O)CSc3nc4ncc(Cl)cc4[nH]3)C(c3ccco3)C2)cc1` (stereo not shown): 8.87%; for `Cc1cc(NC(=O)CSc2nnc(Cc3cccn3C)n2CCc2ccccc2)no1`: 3.14%.
For `S=C1NCN(C2CCCCC2)CN1Cc1ccccc1` the value was 7.51%.
For `CC(=O)N1c2ccc(S(=O)(=O)N3CCCC(C(=O)NCc4ccc(Cl)cc4)C3)cc2CC1C` (stereo not shown) the value was 15.5%; for `COc1ccc(NC(=O)CCc2nnc3ccc(N4CCC(C)CC4)nn23)cc1OC`, 13.7%.
For `Cc1ccc(OCc2cc(C(=O)N(C)CCc3ccccc3)no2)cc1C`, the “hERG current change (%, negative = inhibition) at 1uM” value worked out at 7.65%.
Turning to `Cc1cc(O)c(C(C)C)cc1C1(c2cc(C(C)C)c(O)cc2C)OC(=O)c2ccccc21`, the “hERG current change (%, negative = inhibition) at 1uM” value is on record as 15%.
Regarding `O=C(Nc1ccccc1)N1CCN2C(=O)c3ccccc3C12c1ccccc1` (stereo not shown), the “hERG current change (%, negative = inhibition) at 1uM” value was determined as 15.2%.
As to `Cc1cc(C)n2nc(C(=O)N/N=C/c3ccc(O)cc3)nc2n1`, the “hERG current change (%, negative = inhibition) at 1uM” value amounted to 11.1%.
The same measure for `Cc1nn(C2CCS(=O)(=O)C2)c(Cl)c1/C=C/C(=O)OCC(=O)Nc1ccc2c(c1)OCO2` (stereo not shown): 2.65%; for `CC(C)COC(=O)n1c(=O)oc2ccc(S(=O)(=O)N3CCCCC3)cc21`: 0.0001%.
For `CC1CCN(C(=O)Cn2ncc3c([nH]c4ccccc43)c2=O)CC1` the value was 7.02%; for `Cc1c(Cl)cccc1NC(=O)CCNC(=O)N1CC(=O)Nc2ccccc21`, 14.1%; for `Cc1ccc(-n2ncc3c(=O)n(CC(=O)NC4CCCCC4)cnc32)cc1`, 19.8%.
